Test results published in the supplement of paper PMC12067093, “Discovery and optimisation of a covalent ligand for TRIM25 and its application to targeted protein ubiquitination” (Chemical Science, 2025).
About 21,000 targets were measured; listed, in parts, are those with the largest changes and a random draw of the rest.

Each target was assayed with Cc1cc(ccc1-c1ccccc1)C(=O)N1CCCN(CC1)C(=O)CCl [compound 10] (assay: probe-labelled cysteine peptide fold change vs DMSO (competition) (log2 fold change); higher = less target engagement (more negative = stronger competition)). Conditions: 10 µM; THP-1; incubation time: 4 h.
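Further: competitive profiling in live THP-1 cells: cysteine peptides tagged with an iodoacetamide desthiobiotin (IA-DTB) probe, intensity after compound treatment relative to DMSO-treated cells.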

Chain of UniProt Q12874 (Q12874 whole entry, looked up): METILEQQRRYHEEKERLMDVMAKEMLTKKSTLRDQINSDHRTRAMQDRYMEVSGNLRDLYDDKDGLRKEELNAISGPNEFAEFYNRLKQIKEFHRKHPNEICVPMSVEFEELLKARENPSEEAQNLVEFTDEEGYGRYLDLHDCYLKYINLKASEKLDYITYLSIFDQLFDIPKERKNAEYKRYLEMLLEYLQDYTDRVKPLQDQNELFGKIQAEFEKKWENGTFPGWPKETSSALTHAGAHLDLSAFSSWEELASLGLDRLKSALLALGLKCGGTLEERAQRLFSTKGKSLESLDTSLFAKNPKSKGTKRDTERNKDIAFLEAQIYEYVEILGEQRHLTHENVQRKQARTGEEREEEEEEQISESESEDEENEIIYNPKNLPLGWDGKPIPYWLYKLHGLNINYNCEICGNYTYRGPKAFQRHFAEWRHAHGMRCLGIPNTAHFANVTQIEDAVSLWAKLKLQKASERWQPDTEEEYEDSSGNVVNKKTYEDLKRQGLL
Chain of UniProt Q5SQN1 (Q5SQN1 whole entry): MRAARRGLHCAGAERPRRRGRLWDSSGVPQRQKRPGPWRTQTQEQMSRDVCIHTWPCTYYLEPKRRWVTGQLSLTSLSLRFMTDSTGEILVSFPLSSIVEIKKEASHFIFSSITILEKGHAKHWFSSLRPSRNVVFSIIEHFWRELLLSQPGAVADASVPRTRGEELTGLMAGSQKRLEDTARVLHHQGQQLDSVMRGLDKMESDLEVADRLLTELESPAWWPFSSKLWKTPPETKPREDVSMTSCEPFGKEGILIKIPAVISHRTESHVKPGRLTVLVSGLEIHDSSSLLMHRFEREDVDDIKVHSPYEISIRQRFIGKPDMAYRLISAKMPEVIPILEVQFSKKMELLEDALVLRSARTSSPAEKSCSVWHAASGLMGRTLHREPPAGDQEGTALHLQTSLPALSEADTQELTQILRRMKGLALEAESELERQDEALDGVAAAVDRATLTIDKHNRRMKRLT
Chain of UniProt O95197 (O95197 whole entry, looked up): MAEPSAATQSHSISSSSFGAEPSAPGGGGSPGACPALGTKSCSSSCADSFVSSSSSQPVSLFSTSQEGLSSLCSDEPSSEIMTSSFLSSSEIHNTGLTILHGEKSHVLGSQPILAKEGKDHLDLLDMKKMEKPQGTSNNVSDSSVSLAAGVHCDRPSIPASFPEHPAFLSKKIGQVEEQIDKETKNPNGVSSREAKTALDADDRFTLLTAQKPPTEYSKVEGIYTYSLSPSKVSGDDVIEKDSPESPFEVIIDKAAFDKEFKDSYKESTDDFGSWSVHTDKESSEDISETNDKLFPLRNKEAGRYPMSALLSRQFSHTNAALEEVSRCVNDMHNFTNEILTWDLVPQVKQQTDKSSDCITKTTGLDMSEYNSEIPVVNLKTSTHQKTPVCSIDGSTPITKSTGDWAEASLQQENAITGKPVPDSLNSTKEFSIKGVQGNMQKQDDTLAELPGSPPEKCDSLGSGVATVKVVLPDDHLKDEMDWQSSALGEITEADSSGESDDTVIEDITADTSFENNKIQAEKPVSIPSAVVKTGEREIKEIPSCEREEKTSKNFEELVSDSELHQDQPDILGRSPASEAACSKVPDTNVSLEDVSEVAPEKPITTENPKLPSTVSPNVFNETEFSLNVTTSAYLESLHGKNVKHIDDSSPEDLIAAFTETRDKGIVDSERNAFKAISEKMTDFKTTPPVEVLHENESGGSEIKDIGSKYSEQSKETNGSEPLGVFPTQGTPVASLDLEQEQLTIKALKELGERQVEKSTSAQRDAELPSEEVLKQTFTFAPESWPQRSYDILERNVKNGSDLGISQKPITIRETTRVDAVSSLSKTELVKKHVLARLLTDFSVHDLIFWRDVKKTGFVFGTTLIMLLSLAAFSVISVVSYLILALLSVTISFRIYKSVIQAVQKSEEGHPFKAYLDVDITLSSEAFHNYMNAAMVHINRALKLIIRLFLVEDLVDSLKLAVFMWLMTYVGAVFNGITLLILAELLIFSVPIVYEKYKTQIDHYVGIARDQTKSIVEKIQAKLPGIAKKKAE
Chain of UniProt Q96ER3 (Q96ER3 whole entry, looked up): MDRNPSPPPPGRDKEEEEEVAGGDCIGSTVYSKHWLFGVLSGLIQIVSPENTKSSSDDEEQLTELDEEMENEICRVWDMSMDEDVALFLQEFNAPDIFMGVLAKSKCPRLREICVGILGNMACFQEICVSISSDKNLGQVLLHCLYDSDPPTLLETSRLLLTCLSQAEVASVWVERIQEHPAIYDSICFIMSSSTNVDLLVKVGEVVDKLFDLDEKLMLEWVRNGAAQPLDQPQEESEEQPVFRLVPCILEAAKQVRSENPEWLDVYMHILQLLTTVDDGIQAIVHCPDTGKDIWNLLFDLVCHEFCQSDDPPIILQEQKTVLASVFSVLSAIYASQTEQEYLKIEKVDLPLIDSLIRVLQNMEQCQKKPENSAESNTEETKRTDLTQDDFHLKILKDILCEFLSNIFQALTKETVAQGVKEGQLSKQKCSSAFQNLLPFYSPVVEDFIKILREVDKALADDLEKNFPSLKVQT
Chain of UniProt A6NHR9 (A6NHR9 whole entry, looked up): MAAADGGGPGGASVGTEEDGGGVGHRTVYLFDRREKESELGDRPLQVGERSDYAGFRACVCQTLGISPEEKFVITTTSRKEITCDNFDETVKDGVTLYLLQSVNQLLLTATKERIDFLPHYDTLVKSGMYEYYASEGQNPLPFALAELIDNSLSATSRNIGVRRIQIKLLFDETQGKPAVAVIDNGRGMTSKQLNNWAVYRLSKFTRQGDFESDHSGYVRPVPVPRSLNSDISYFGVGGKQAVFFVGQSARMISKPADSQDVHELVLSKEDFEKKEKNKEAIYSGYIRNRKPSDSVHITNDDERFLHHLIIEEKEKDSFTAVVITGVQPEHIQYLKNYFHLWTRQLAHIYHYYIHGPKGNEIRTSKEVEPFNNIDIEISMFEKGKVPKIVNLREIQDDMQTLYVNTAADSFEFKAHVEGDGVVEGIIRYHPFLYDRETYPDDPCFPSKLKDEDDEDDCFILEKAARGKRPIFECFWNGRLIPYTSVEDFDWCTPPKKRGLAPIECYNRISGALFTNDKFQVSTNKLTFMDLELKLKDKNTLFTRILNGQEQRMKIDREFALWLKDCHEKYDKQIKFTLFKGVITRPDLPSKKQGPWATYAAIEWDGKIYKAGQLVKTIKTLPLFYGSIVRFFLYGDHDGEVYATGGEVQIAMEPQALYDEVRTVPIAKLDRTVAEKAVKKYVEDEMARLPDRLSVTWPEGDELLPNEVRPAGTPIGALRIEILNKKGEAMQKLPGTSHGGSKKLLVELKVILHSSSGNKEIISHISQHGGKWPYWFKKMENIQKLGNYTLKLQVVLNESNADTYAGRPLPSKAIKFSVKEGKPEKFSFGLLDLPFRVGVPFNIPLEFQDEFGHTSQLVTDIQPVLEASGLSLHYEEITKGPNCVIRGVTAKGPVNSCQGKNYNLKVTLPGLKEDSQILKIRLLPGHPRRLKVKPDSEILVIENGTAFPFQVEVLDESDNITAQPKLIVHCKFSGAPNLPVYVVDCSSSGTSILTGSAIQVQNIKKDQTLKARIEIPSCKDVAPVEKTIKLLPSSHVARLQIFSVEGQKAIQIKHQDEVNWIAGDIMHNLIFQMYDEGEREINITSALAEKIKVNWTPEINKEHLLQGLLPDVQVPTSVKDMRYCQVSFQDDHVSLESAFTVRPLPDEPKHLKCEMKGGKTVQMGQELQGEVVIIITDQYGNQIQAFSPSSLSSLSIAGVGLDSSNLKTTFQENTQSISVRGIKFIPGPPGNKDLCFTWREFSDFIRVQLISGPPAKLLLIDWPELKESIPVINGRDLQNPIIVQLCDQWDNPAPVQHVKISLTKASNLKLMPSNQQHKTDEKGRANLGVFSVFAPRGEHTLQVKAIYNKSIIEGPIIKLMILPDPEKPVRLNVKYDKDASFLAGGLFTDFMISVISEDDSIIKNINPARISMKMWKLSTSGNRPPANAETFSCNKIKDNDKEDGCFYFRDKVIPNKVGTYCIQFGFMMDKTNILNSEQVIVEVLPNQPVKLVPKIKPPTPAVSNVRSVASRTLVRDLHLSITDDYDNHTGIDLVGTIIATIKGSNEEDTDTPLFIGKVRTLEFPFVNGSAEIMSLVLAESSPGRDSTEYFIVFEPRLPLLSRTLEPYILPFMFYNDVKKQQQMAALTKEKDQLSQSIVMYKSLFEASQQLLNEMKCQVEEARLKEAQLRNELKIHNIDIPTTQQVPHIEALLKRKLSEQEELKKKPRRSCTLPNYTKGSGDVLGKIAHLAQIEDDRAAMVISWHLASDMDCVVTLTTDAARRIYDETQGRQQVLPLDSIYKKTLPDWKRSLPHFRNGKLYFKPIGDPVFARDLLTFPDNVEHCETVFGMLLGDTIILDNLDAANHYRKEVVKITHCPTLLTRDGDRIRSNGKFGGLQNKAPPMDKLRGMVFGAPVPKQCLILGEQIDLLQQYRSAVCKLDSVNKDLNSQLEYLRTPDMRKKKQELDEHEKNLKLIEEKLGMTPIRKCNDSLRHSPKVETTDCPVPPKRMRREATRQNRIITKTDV
Chain of UniProt A6NKF1 (A6NKF1 whole entry, looked up): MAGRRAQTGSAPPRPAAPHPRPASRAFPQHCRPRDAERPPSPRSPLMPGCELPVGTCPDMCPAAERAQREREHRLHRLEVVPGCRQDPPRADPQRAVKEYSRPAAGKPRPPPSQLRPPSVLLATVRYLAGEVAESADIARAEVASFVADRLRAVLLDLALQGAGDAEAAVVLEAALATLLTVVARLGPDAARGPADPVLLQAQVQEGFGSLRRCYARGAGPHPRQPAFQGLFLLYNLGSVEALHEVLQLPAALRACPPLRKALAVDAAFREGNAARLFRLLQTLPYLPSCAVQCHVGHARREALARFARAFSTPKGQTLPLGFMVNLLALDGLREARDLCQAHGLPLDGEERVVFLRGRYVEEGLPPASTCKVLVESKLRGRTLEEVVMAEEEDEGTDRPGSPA

Target	probe-labelled cysteine peptide fold change
SERPINB9_P50453_259_LTAWTKPDCMK (UniProt P50453)	-0.11
SLC2A9_Q9NRM0_36_ALLECDHLR (UniProt Q9NRM0)	-0.397
SAAL1_Q96ER3_144_NLGQVLLHCLYDSDPPTLLETSR (UniProt Q96ER3)	0.0958
RPUSD2_Q8IZ73_502_AVETDVMNQETDPLCAECR (UniProt Q8IZ73)	-0.00549
RPL4_P36578_96_SGQGAFGNMCR (UniProt P36578)	-0.227
RNF213_Q63HN8_700+701_TYTWLGALPVLHCCMELAPR (UniProt Q63HN8)	-0.224
SNAP47_Q5SQN1_369_SCSVWHAASGLMGR (UniProt Q5SQN1)	-0.275
SMG8_Q8ND04_611_STGACNCGR (UniProt Q8ND04)	-0.0866
SLC25A24_Q6NUK1_330_TGQYSGIYDCAK (UniProt Q6NUK1)	0.0687
RNF213_Q63HN8_876_FYELPALSAEIVCR (UniProt Q63HN8)	-0.175
RPTOR_Q8N122_617_CAAVFALGTFVGNSAER (UniProt Q8N122)	0.0641
RNF213_Q63HN8_2503_EVLCDHMVDGQPLAEDSGLHIIAACNPYR (UniProt Q63HN8)	-0.0995
SDHA_P31040_438+443_HVNGQDQIVPGLYACGEAACASVHGANR (UniProt P31040)	-0.14
SF3A3_Q12874_411_LHGLNINYNCEICGNYTYR (UniProt Q12874)	0.0514
SMC4_Q9NTJ3_110_FSCIIGPNGSGK (UniProt Q9NTJ3)	0.12
SLC25A20_O43772_283_AFPANAACFLGFEVAMK (UniProt O43772)	-0.17
RTN3_O95197-3_46_SCSSSCAVHDLIFWR (UniProt O95197)	-2.6
RPL10A_P62906_66+74_FSVCVLGDQQHCDEAK (UniProt P62906)	0.411

Target	probe-labelled cysteine peptide fold change
SDHB_P21912_243_CHTIMNCTR (UniProt P21912)	-0.165
SMARCC1_Q92922_164_TLVQNNCLTRPNIYLIPDIDLK (UniProt Q92922)	0.0356
SMAD9_O15198_93_GLPHVIYCR<|>SMAD3_Q15796_89_GLPHVIYCR<|>SMAD2_Q99717_129_GLPHVIYCR (UniProt Q99717+Q15796+O15198)	0.0352
SMCHD1_A6NHR9_1823_DLLTFPDNVEHCETVFGMLLGDTIILDNLDAANHYR (UniProt A6NHR9)	0.0852
SAMHD1_Q9Y3Z3_266_WTHEQGSVMMFEHLINSNGIKPVMEQYGLIPEEDICFIK (UniProt Q9Y3Z3)	-0.168
SMC2_O95347_800_KLDCAK (UniProt O95347)	-0.0608
SEC24C_P53992_635_AAECAGK (UniProt P53992)	-0.0235
SHMT2_P34897_241_EVCDEVK (UniProt P34897)	-0.00986
SLC15A4_Q8N697_269_ILTYSCCSQK (UniProt Q8N697)	-0.524
SETX_Q7Z333_688_LEDHLLAGSCLK (UniProt Q7Z333)	-0.212
SH3RF1_Q7Z6J0_93_QRPWKPGPGGGSGTNCTNALR (UniProt Q7Z6J0)	-0.281
RNF31_Q96EP0_998_ETPAGYAGLCQAHYK (UniProt Q96EP0)	0.00152
SETD1B_Q9UPS6_1448_DFSFTPTFSEPSGPLLLPVCPLPTGR (UniProt Q9UPS6)	-0.238
SLC30A1_Q9Y6M5_390_CEDPTSYMEVAK (UniProt Q9Y6M5)	-0.0348
SF3B1_O75533_933_VKPYLPQICGTVLWR (UniProt O75533)	-0.0747
SLC25A10_Q9UBX3_69_TDGILALYSGLSASLCR (UniProt Q9UBX3)	-0.000955
SAC3D1_A6NKF1_290_LLQTLPYLPSCAVQCHVGHAR (UniProt A6NKF1)	-0.0451
SCP2_P22307_115_QLIQGGVAECVLALGFEK (UniProt P22307)	-1.61

Same assay, conditions: 50 µM; THP-1; incubation time: 4 h

Target	probe-labelled cysteine peptide fold change
SERPINB9_P50453_259_LTAWTKPDCMK (UniProt P50453)	-0.135
SLC2A9_Q9NRM0_36_ALLECDHLR (UniProt Q9NRM0)	-1.08
SAAL1_Q96ER3_144_NLGQVLLHCLYDSDPPTLLETSR (UniProt Q96ER3)	-0.138
RPUSD2_Q8IZ73_502_AVETDVMNQETDPLCAECR (UniProt Q8IZ73)	0.19
RPL4_P36578_96_SGQGAFGNMCR (UniProt P36578)	-0.224
RNF213_Q63HN8_700+701_TYTWLGALPVLHCCMELAPR (UniProt Q63HN8)	-0.555
SNAP47_Q5SQN1_369_SCSVWHAASGLMGR (UniProt Q5SQN1)	-0.786
SMG8_Q8ND04_611_STGACNCGR (UniProt Q8ND04)	-0.204
SLC25A24_Q6NUK1_330_TGQYSGIYDCAK (UniProt Q6NUK1)	-0.0859
RNF213_Q63HN8_876_FYELPALSAEIVCR (UniProt Q63HN8)	0.272
RPTOR_Q8N122_617_CAAVFALGTFVGNSAER (UniProt Q8N122)	0.22
RNF213_Q63HN8_2503_EVLCDHMVDGQPLAEDSGLHIIAACNPYR (UniProt Q63HN8)	-0.0384
SDHA_P31040_438+443_HVNGQDQIVPGLYACGEAACASVHGANR (UniProt P31040)	-0.307
SF3A3_Q12874_411_LHGLNINYNCEICGNYTYR (UniProt Q12874)	-0.0305
SMC4_Q9NTJ3_110_FSCIIGPNGSGK (UniProt Q9NTJ3)	0.0565
SLC25A20_O43772_283_AFPANAACFLGFEVAMK (UniProt O43772)	-0.133
RTN3_O95197-3_46_SCSSSCAVHDLIFWR (UniProt O95197)	-2.97
RPL10A_P62906_66+74_FSVCVLGDQQHCDEAK (UniProt P62906)	-0.171

Target	probe-labelled cysteine peptide fold change
SDHB_P21912_243_CHTIMNCTR (UniProt P21912)	-0.17
SMARCC1_Q92922_164_TLVQNNCLTRPNIYLIPDIDLK (UniProt Q92922)	0.0091
SMAD9_O15198_93_GLPHVIYCR<|>SMAD3_Q15796_89_GLPHVIYCR<|>SMAD2_Q99717_129_GLPHVIYCR (UniProt Q99717+Q15796+O15198)	-0.128
SMCHD1_A6NHR9_1823_DLLTFPDNVEHCETVFGMLLGDTIILDNLDAANHYR (UniProt A6NHR9)	0.316
SAMHD1_Q9Y3Z3_266_WTHEQGSVMMFEHLINSNGIKPVMEQYGLIPEEDICFIK (UniProt Q9Y3Z3)	0.189
SMC2_O95347_800_KLDCAK (UniProt O95347)	-0.933
SEC24C_P53992_635_AAECAGK (UniProt P53992)	-0.121
SHMT2_P34897_241_EVCDEVK (UniProt P34897)	0.0271
SLC15A4_Q8N697_269_ILTYSCCSQK (UniProt Q8N697)	-1.45
SETX_Q7Z333_688_LEDHLLAGSCLK (UniProt Q7Z333)	-1.2
SH3RF1_Q7Z6J0_93_QRPWKPGPGGGSGTNCTNALR (UniProt Q7Z6J0)	-0.663
RNF31_Q96EP0_998_ETPAGYAGLCQAHYK (UniProt Q96EP0)	-0.264
SETD1B_Q9UPS6_1448_DFSFTPTFSEPSGPLLLPVCPLPTGR (UniProt Q9UPS6)	-0.274
SLC30A1_Q9Y6M5_390_CEDPTSYMEVAK (UniProt Q9Y6M5)	-0.326
SF3B1_O75533_933_VKPYLPQICGTVLWR (UniProt O75533)	-0.0138
SLC25A10_Q9UBX3_69_TDGILALYSGLSASLCR (UniProt Q9UBX3)	0.6
SAC3D1_A6NKF1_290_LLQTLPYLPSCAVQCHVGHAR (UniProt A6NKF1)	-0.0296
SCP2_P22307_115_QLIQGGVAECVLALGFEK (UniProt P22307)	-1.23
